PubChem BioAssay (NCATS)
The shares of active, inactive and inconclusive entries below differ from those in the screen. For some assays here: Potencies beside an inconclusive call are fits to weak or partial responses and may not hold up. The source made the active and inactive calls. Unless noted, calls follow the shape of the dose curve; as a rule, active = well fitted curve in the direction sought with a large enough effect; inconclusive = small, poorly fitted or top-dose-only effect, or another doubt; inactive = no such curve, though single readings can be large; an effect the other way counts as inactive or inconclusive.

Tests used:
[1] = tested on: Zika virus NS2B-NS3 protease; test: Primary screen GU AMC qHTS for Zika virus inhibitors (AID 1347154); also: nearly all actives have a fitted effect of over 70% in size; also: potency is read from the fitted curve at half-maximal effect;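 as to activity change, negative = inhibition: 0% = no-inhibitor control and -100% = no-enzyme control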
Outline: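 Fluorogenic AMC-substrate cleavage by noncovalent NS2B-NS3 protease complex (25 nM, pH 8.0 Tris buffer with Tween 20) followed for 15 minutes at room temperature (~20% conversion). Percent inhibition from ex340/em450 signal change, fitted by 4-parameter Hill equation.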

[2] = NFAT Signaling Pathway (AID 444; active = well fitted curve in either direction with a large enough effect, not every such curve was filed as active; inconclusive = small, poorly fitted or top-dose-only effect, or another doubt;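 also: carbachol stimulus at about its EC50 of 1 µM final; % is scaled to controls: 0 for no effect and ±100 for the full control effect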); settings: Jurkat NFAT-bla M1, carbachol, beta-lactamase ratio, 5 h; at 7.69 µM (top of the series) unless noted
Outline: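 Read-out: CCF4 FRET ratio (460 nm/530 nm) after 1 h RT dye loading, used for %activity and AC50 from titration series. Cells: Jurkat NFAT-β-lactamase/M1 line, treated with compound plus 1 uM carbachol for 5 h, 37 °C.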

[3] = qHTS Assay for Identification of Small Molecule Antagonists for NFkB Signaling Pathway (AID 895; active = well fitted inhibition curve with a large enough effect in the signal ratio, with a control signal flat, not every such curve was filed as active; inconclusive = small, poorly fitted or top-dose-only effect, or effect the other way, or a change in a side signal; the % refers to the signal ratio; also: potency is read from the fitted curve at half-maximal effect); settings: NFkB beta-lactamase reporter cells, FRET ratio 460/530, stimulated with 10 pM TNF alpha; activity change, negative = inhibition: at 38.3 µM (top of the series)
Outline: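 Beta-lactamase reporter read-out (460 and 530 nm emission ratio, 405 nm excitation, 2 hrs substrate loading RT) after 5 hr stimulation with 10 pM TNF alpha in compound-treated NFkB-bla ME-180 cells in low-serum medium.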

[4] = qHTS Assay for Identification of Small Molecule Agonists for Thrombopoietin (TPO) Signaling Pathway (AID 917); also: % is scaled to controls: 0 for no effect and ±100 for the full control effect
Outline: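 Luciferase reporter (Glycoprotein IIb promoter) in IL-3-deprived Ba/F3 cells carrying human TPO receptor; compounds co-added with 26 pM TPO, incubated 24 h, 37 C. Steadylite luminescence measured after 10 min.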

[5] = target: Muscarinic acetylcholine receptor M1 (Rattus norvegicus) (UniProt P08482); test: qHTS Assay for Antagonists of Acetylcholine Muscarinic M1 Receptor: Kinetic Measurement of Intracellular Calcium Response (AID 943); also: potency is read from the fitted curve at half-maximal effect; nearly all actives have a fitted effect of over 75% in size
Outline: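 Antagonism measured as reduction of carbachol-evoked (EC80, 100 nM final) calcium flux in rat M1-CHO cells after 10 min compound exposure. Fluo-4 signal read kinetically; ratio of maximal to basal fluorescence.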

[6] = target: Muscarinic acetylcholine receptor M1 (Rattus norvegicus) (UniProt P08482); test: qHTS Assay for Antagonists of Acetylcholine Muscarinic M1 Receptor: Measurement of IP-One Response (AID 944); also: potency is read from the fitted curve at half-maximal effect; nearly all actives have a fitted effect of over 75% in size
[7] = qHTS Assay for Lipid Storage Modulators (AID 1519; calls by dose curve; also: % is scaled to controls: 0 for no effect and ±100 for the full control effect); settings: Drosophila S3 cells, BODIPY lipid droplet/cell ratio, laser cytometry, cells loaded with oleic acid; activity change, negative = inhibition: at 57.5 µM (top of the series) unless noted
Outline: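 Cells seeded at 5,000 per well were treated with compounds over a concentration series and loaded with oleic acid (400 uM, as added). Lipid droplet fluorescence (488 nm excitation, 500-530 nm channel) was read by laser-scanning cytometry and normalized to 20 uM Triacsin C.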

[8] = Confirmatory qHTS for small molecule stabilizers of the endoplasmic reticulum resident proteome: Secreted ER Calcium Modulated Protein (SERCaMP) assay (AID 1508628); also: potency is read from the fitted curve at half-maximal effect; nearly all actives have a fitted effect of over 40% in size
Outline: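 Reporter secretion upon ER calcium depletion (100 nM thapsigargin, 4 h, 37C) is measured as medium luminescence with coelenterazine, after 16 h compound pretreatment of SH-SY5Y-GLuc-SERCaMP cells; primary at three concentrations up to 38.3 uM, follow-up at 11 (up to 76.6 uM).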

[9] = Cell Viability qHTS for small molecule stabilizers of the endoplasmic reticulum resident proteome (AID 1508629); settings: cell viability counter-screen, 100 nM thapsigargin for final 4 h;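 also: potency is read from the fitted curve at half-maximal effect; compound exposure about 46 h in total before the viability read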
[10] = Primary qHTS for small molecule stabilizers of the endoplasmic reticulum resident proteome: Secreted ER Calcium Modulated Protein (SERCaMP) assay (AID 1508630); settings: SH-SY5Y GLuc-SERCaMP (Gaussia luciferase released on ER calcium loss) secretion, thapsigargin, luminescence; activity change, negative = inhibition: at 38.4 µM (top of the series) unless noted; also: potency is read from the fitted curve at half-maximal effect; as to activity change, negative = inhibition: % is scaled to controls: 0 for no effect and ±100 for the full control effect
Outline: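 The SH-SY5Y reporter protocol was run at 3 concentrations up to 38.3 uM (primary) or 11 concentrations (follow-up): 16 h compound, 100 nM thapsigargin for 4 h, then extracellular luciferase luminescence.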
Tags tell the direction and shape of the fitted curve or compound fluorescence and quenching.

Sequence of UniProt P08482 (P08482 whole entry, looked up): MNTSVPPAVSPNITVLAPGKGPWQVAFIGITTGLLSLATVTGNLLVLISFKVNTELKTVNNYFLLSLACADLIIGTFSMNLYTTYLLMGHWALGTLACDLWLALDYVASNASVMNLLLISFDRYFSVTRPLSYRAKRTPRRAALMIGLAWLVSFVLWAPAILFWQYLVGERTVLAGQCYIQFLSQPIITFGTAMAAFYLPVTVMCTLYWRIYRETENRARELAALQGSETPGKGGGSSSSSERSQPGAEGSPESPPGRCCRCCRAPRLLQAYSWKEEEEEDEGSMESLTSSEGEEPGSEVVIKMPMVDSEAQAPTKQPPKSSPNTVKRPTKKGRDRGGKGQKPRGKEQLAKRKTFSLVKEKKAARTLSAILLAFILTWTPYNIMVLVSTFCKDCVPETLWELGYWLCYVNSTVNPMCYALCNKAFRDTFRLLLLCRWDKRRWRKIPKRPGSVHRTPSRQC

CC(N)COC(=O)C(CCCCN)NC(=O)Cc1c(-c2ccc3ccccc3c2)[nH]c2c1ccc1ccccc12 (centres undefined)
Potency [1]: inactive

O=C(O)c1ccc2nc(-c3ccccc3)c(-c3ccccc3)nc2c1
Potency [1]: inconclusive: 2.99 µM [inhibitor, partial curve]

CN(C)C/C=C(\c1ccc(Br)cc1)c1cccnc1
activity change, negative = inhibition [2]: inconclusive: -18.9% [inhibitor] [at 38 µM]
Potency [3]: inconclusive: 3.55 µM [inhibitor, full curve, poor fit]
Potency [4]: inactive
Potency [5]: inconclusive: 20 µM [inhibitor, partial curve, poor fit]
Potency [6]: inconclusive: 14.1 µM [inhibitor, partial curve, poor fit]
Potency [7]: inactive
Potency [1]: inactive
Potency [8]: active: 44.7 µM
Potency [9]: inconclusive: 0.126 µM [rising, full curve]
Potency [10]: inconclusive: 10 µM [inhibitor, partial curve, poor fit]

OC[C@H]1O[C@@H](n2cnc3c(NC4CCCC4)nc(Cl)nc32)[C@H](O)[C@@H]1O
Potency [1]: inactive
Potency [10]: inactive
